# Laboratory results published in the supplement of paper PMC10037445.
# Whole data set: some 2,900 compounds, median “IRF Lucia reporter activity, fold change vs agonist alone” near 0.9, cut for the highest 2% near 2.8. Some of the results follow.
# How the values were obtained:
# RAW-Dual [1] = assay: IRF Lucia reporter activity, fold change vs agonist alone; cytotoxicity flag (confluency mask): not cytotoxic; higher = enhanced IRF activity
# Procedure, shortened: (§1)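 Supernatant from RAW-Dual macrophages was read after 20 hours for IRF by QuantiLuc luminescence and for NF-κB by QuantiBlue absorbance at 620 nm. The cells (50,000 cells/well in DMEM, 384-well plates, 37 °C, 5% CO2) had received 50 nL of library stock by pin tool and, 1 h later, a PRR agonist. Reporter activity is expressed relative to agonist-alone wells as fold change, and wells were flagged cytotoxic if IncuCyte confluency was under 70% of agonist controls in both mask sets.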
# RAW-Dual [2] = assay: IRF Lucia reporter activity, fold change vs agonist alone; cytotoxicity flag (confluency mask): cytotoxic (confluency <70% of control); higher = enhanced IRF activity
# Procedure, shortened: as §1
# RAW-Dual [3] = assay: IRF Lucia reporter activity, fold change vs agonist alone; higher = enhanced IRF activity; settings: cytotoxicity flag (confluency mask): not cytotoxic, agonist: MPLA (TLR4) […]
# Procedure, shortened: as §1
# [4] = agonist: 3'3'-cGAMP (STING) 10 ug/mL
# [5] = library stock concentration (final ~1000-fold dilution): 10 mM
structure (smiles),measurement,setting,value
CCOc1ccc(CC2NC(=O)CCSSCC(C(=O)N3CCCC3C(=O)NC(CCCN)C(=O)NCC(N)=O)NC(=O)C(CC(N)=O)NC(=O)C(C(C)O)NC(=O)C(C(C)CC)NC2=O)cc1 (configuration not stated) (library stock concentration (final ~1000-fold dilution): 10 mM water),IRF Lucia reporter activity,RAW-Dual [1]; [4],1.44
same,IRF Lucia reporter activity,RAW-Dual [1]; agonist: LPS (TLR4) 0.1 ug/mL,1.02
CN1CCc2cc(Nc3ncc(C4CC4)c(NCCCNC(=O)C4CCC4)n3)ccc2C1 (library stock concentration (final ~1000-fold dilution): 10 mM),IRF Lucia reporter activity,RAW-Dual [2]; [4],0.0101
same,IRF Lucia reporter activity,RAW-Dual [2]; agonist: LPS (TLR4) 0.1 ug/mL,0.0124
Cl.Cl.O=C(O)c1ccc(CN2CCC(CNC3CC3c3ccccc3)CC2)cc1 (configuration not stated) (library stock concentration (final ~1000-fold dilution): 10 mM),IRF Lucia reporter activity,RAW-Dual [1]; [4],1.01
same,IRF Lucia reporter activity,RAW-Dual [1]; agonist: LPS (TLR4) 0.1 ug/mL,1.31
Cl.c1ccc(CN(CC2=NCCN2)c2ccccc2)cc1,IRF Lucia reporter activity,RAW-Dual [3]; [5],1.11
Cl.c1ccc(CN(CC2=NCCN2)c2ccccc2)cc1 (library stock concentration (final ~1000-fold dilution): 10 mM),IRF Lucia reporter activity,RAW-Dual [1]; [4],1.04
same,IRF Lucia reporter activity,RAW-Dual [1]; agonist: LPS (TLR4) 0.1 ug/mL,1.19
CC(=O)c1ccc2c(c1)Nc1ccccc1S2 (library stock concentration (final ~1000-fold dilution): 10 mM),IRF Lucia reporter activity,RAW-Dual [1]; [4],0.979
same,IRF Lucia reporter activity,RAW-Dual [1]; agonist: LPS (TLR4) 0.1 ug/mL,1.21
CC(=O)c1ccc2c(c1)Nc1ccccc1S2,IRF Lucia reporter activity,RAW-Dual [3]; [5],1.06
C=CC(=O)NC1CCOCC1Nc1ncc2cc(-c3c(Cl)c(OC)cc(OC)c3Cl)ccc2n1 (configuration not stated) (library stock concentration (final ~1000-fold dilution): 10 mM),IRF Lucia reporter activity,RAW-Dual [1]; [4],0.285
same,IRF Lucia reporter activity,RAW-Dual [1]; agonist: LPS (TLR4) 0.1 ug/mL,1.24
CC(C)Nc1cc(-c2c[nH]c(C(=O)NC(CO)c3cccc(Cl)c3)c2)c(Cl)cn1 (configuration not stated) (library stock concentration (final ~1000-fold dilution): 10 mM),IRF Lucia reporter activity,RAW-Dual [1]; [4],0.448
same,IRF Lucia reporter activity,RAW-Dual [1]; agonist: LPS (TLR4) 0.1 ug/mL,0.679
Cn1cc(Nc2nccc(N3CC4CCC(C3)N4C(=O)C3CC3(F)F)n2)cn1 (configuration not stated) (library stock concentration (final ~1000-fold dilution): 10 mM),IRF Lucia reporter activity,RAW-Dual [1]; [4],0.223
same,IRF Lucia reporter activity,RAW-Dual [1]; agonist: LPS (TLR4) 0.1 ug/mL,0.505
Oc1cc2c(cc1O)CN(C(=S)NCCc1ccc(Cl)cc1)CCC2 (library stock concentration (final ~1000-fold dilution): 10 mM),IRF Lucia reporter activity,RAW-Dual [1]; [4],0.0216
same,IRF Lucia reporter activity,RAW-Dual [1]; agonist: LPS (TLR4) 0.1 ug/mL,0.153
Cl.Cn1cc(C(=O)Nc2ccc3c(c2)OCCO3)c2ccccc2c1=O (library stock concentration (final ~1000-fold dilution): 10 mM),IRF Lucia reporter activity,RAW-Dual [1]; [4],0.791
same,IRF Lucia reporter activity,RAW-Dual [1]; agonist: LPS (TLR4) 0.1 ug/mL,0.445
O=C1Cc2c([nH]c3ccc(Br)cc23)-c2ccccc2N1 (library stock concentration (final ~1000-fold dilution): 10 mM),IRF Lucia reporter activity,RAW-Dual [1]; [4],0.27
same,IRF Lucia reporter activity,RAW-Dual [1]; agonist: LPS (TLR4) 0.1 ug/mL,0.174
CCc1c(O)cc(O)c(C(=O)c2ccc(OCCN3CCOCC3)c(OC)c2)c1CC(=O)N(CCOC)CCOC,IRF Lucia reporter activity,RAW-Dual [3]; [5],0.951
CCc1c(O)cc(O)c(C(=O)c2ccc(OCCN3CCOCC3)c(OC)c2)c1CC(=O)N(CCOC)CCOC (library stock concentration (final ~1000-fold dilution): 10 mM),IRF Lucia reporter activity,RAW-Dual [1]; [4],1.23
same,IRF Lucia reporter activity,RAW-Dual [1]; agonist: LPS (TLR4) 0.1 ug/mL,1.08
Cc1cc2c(C(N)=O)cccc2n1-c1nc2c(c(NCc3ccccc3)n1)COCC2 (library stock concentration (final ~1000-fold dilution): 10 mM),IRF Lucia reporter activity,RAW-Dual [2]; [4],0.0146
same,IRF Lucia reporter activity,RAW-Dual [2]; agonist: LPS (TLR4) 0.1 ug/mL,0.478
Cc1coc2c1C(=O)C(=O)c1c-2ccc2c1CCCC2(C)C (library stock concentration (final ~1000-fold dilution): 10 mM),IRF Lucia reporter activity,RAW-Dual [1]; [4],0.536
same,IRF Lucia reporter activity,RAW-Dual [1]; agonist: LPS (TLR4) 0.1 ug/mL,0.587
Cc1coc2c1C(=O)C(=O)c1c-2ccc2c1CCCC2(C)C,IRF Lucia reporter activity,RAW-Dual [3]; [5],0.627
COc1cc(C(=O)O)ccc1NC(=O)C1NC(CC(C)(C)C)C(C#N)(c2ccc(Cl)cc2F)C1c1cccc(Cl)c1F (configuration not stated),IRF Lucia reporter activity,RAW-Dual [3]; [5],0.67
COc1cc(C(=O)O)ccc1NC(=O)C1NC(CC(C)(C)C)C(C#N)(c2ccc(Cl)cc2F)C1c1cccc(Cl)c1F (configuration not stated) (library stock concentration (final ~1000-fold dilution): 10 mM),IRF Lucia reporter activity,RAW-Dual [1]; [4],0.62
same,IRF Lucia reporter activity,RAW-Dual [1]; agonist: LPS (TLR4) 0.1 ug/mL,0.186
CCN(CCO)CCCC(C)Nc1ccnc2cc(Cl)ccc12.O=S(=O)(O)O (configuration not stated),IRF Lucia reporter activity,RAW-Dual [3]; library stock concentration (final ~1000-fold dilution): 10 mM water,1.13
CCN(CCO)CCCC(C)Nc1ccnc2cc(Cl)ccc12.O=S(=O)(O)O (configuration not stated) (library stock concentration (final ~1000-fold dilution): 10 mM water),IRF Lucia reporter activity,RAW-Dual [1]; [4],0.923
same,IRF Lucia reporter activity,RAW-Dual [1]; agonist: LPS (TLR4) 0.1 ug/mL,0.914
CC(=O)OC12COC1CC(O)C1(C)C(=O)C(O)C3=C(C)C(OC(=O)C(O)C(NC(=O)OC(C)(C)C)c4ccccc4)CC(O)(C(OC(=O)c4ccccc4)C21)C3(C)C.O.O.O (configuration not stated) (library stock concentration (final ~1000-fold dilution): 10 mM),IRF Lucia reporter activity,RAW-Dual [1]; [4],0.558
same,IRF Lucia reporter activity,RAW-Dual [1]; agonist: LPS (TLR4) 0.1 ug/mL,0.974
Nc1nc2cc(-c3ccc4ncc(C(=O)N5CCOCC5)n4c3)ccc2o1 (library stock concentration (final ~1000-fold dilution): 10 mM),IRF Lucia reporter activity,RAW-Dual [1]; [4],0.343
same,IRF Lucia reporter activity,RAW-Dual [1]; agonist: LPS (TLR4) 0.1 ug/mL,1.04
